In article PMC9638944, “ATM-mediated ELL phosphorylation enhances its self-association through increased EAF1 interaction and inhibits global transcription during genotoxic stress” (Nucleic Acids Research, 2022):
Residue numbers refer to the chain shown, from its start. These are yes or no findings as the source states them, for the method shown. Binding seen in cells or lysates may run through a third protein. Some results given as binding are weak or reduced against the parent protein; the word gives no strength. For some of these results: Where a sequence is shown, tags or fusion partners need not be part of it.

By UniProt entry, the sequences of proteins in these tests, tags left out.
UniProt P50750: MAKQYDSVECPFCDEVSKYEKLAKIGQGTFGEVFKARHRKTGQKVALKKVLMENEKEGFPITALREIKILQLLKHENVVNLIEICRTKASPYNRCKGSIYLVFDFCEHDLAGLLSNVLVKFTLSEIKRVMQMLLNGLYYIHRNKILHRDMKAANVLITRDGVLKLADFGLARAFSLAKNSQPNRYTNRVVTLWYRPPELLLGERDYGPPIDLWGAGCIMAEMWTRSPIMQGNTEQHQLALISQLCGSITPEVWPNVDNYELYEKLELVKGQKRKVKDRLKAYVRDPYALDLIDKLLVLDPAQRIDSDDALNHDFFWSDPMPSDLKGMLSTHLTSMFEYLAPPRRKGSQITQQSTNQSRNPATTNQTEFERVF
UniProt P42568: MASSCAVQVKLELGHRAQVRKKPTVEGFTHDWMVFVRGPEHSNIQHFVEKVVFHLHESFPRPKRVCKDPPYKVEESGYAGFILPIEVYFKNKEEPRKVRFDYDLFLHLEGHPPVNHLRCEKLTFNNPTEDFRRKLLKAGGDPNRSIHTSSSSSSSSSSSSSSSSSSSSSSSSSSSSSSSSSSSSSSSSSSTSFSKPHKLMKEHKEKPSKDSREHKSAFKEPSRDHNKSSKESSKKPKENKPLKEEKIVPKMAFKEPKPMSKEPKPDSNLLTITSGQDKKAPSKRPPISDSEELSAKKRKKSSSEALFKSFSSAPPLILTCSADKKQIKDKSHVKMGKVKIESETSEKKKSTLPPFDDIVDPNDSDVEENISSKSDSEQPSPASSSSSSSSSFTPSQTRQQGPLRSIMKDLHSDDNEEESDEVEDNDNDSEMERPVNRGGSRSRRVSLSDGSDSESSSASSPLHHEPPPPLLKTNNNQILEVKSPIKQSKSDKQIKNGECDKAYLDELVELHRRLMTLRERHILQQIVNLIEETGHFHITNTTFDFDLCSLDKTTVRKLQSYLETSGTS
UniProt Q9Y2F5: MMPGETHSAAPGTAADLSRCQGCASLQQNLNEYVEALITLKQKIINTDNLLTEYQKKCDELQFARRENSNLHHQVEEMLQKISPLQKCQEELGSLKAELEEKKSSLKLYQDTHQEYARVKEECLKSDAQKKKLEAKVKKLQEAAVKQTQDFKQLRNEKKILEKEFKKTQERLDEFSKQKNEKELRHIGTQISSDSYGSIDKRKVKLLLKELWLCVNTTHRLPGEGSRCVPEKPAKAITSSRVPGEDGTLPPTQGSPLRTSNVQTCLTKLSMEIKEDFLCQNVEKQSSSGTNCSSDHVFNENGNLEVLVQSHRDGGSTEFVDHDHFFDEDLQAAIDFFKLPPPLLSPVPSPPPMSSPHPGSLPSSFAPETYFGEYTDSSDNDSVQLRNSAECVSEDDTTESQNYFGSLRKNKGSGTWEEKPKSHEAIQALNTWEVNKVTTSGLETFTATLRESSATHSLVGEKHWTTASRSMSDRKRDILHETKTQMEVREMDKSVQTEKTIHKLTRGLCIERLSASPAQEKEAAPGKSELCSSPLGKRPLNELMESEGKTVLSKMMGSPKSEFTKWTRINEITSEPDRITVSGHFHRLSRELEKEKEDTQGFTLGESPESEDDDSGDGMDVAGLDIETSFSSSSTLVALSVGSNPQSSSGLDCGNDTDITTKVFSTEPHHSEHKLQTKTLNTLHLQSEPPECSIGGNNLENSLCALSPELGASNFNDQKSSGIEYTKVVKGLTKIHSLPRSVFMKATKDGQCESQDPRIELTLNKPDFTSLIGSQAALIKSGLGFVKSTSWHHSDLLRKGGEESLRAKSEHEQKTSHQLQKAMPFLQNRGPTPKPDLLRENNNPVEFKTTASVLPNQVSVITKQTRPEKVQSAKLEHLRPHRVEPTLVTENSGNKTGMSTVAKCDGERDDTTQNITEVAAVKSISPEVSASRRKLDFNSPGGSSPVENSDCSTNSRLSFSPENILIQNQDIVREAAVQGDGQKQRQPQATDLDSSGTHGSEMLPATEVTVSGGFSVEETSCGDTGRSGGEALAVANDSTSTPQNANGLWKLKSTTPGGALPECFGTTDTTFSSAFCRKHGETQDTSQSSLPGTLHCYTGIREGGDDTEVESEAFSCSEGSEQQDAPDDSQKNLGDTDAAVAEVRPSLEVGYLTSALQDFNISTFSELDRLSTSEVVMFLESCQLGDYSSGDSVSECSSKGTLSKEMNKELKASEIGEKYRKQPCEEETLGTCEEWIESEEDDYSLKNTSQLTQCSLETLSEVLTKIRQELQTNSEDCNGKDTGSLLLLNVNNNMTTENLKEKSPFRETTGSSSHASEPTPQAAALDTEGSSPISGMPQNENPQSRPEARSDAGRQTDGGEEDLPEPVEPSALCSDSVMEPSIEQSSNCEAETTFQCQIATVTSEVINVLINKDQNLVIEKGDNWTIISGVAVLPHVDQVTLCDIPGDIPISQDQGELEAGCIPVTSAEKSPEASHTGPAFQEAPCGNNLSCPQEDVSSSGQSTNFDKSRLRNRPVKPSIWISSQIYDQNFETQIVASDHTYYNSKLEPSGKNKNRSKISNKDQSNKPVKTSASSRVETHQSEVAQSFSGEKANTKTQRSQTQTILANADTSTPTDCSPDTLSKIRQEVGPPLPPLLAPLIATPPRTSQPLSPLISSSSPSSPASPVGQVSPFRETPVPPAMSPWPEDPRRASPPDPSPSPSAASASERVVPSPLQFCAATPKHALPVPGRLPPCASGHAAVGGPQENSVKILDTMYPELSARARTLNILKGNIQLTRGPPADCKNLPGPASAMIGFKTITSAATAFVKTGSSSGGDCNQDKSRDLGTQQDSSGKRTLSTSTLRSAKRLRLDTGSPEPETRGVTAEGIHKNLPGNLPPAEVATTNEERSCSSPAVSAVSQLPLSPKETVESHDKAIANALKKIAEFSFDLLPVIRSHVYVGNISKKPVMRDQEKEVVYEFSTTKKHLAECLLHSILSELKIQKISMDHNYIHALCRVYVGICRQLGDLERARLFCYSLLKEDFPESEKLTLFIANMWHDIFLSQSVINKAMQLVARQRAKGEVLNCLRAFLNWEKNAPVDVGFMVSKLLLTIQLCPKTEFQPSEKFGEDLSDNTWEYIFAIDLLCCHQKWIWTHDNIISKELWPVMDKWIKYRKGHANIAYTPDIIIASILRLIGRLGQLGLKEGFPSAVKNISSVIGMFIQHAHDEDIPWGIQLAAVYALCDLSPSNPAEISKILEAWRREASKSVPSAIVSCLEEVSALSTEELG
UniProt Q96CJ1: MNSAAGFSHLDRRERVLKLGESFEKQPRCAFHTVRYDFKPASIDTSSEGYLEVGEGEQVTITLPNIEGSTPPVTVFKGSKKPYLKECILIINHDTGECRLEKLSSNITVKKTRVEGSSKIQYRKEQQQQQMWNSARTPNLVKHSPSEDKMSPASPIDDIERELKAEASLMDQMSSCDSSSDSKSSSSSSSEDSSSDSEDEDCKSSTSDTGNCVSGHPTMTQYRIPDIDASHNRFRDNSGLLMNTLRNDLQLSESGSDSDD

Key:
FLAG-ELL (Sf9) (human) = target: T1, FLAG-ELL (Sf9) (human) (UniProt P55199); experiment: co-IP; Sf9 cells co-infected with baculoviruses, lysis buffer with 300 mM KCl and 0.1% NP-40; first round of precipitation by the tagged ELL (FLAG-ELL or His-ELL), 12 h, 4°C; immunoblot
T1 sequence: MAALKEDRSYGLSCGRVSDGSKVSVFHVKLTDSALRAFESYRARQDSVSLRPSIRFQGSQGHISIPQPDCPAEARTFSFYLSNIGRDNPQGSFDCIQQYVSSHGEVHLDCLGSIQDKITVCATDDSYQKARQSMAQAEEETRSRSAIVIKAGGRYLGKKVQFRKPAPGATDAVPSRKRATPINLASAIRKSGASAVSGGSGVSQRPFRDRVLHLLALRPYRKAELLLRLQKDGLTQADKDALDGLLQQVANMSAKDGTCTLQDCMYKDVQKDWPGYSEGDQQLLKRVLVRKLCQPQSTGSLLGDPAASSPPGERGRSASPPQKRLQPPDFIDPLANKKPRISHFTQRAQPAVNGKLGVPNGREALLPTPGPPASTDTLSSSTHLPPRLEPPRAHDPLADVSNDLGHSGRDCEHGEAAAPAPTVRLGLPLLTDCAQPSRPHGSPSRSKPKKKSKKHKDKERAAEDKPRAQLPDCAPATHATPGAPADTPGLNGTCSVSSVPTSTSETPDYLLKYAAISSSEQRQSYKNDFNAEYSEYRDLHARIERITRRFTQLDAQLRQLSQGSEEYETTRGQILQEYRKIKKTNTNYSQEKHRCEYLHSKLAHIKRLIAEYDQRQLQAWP

His-ELL (Sf9) (human) = target: T2, His-ELL (Sf9) (human) (UniProt P55199); experiment: as above
T2 sequence: T1 sequence

FLAG-ELL (human) [1] = target: T3, FLAG-ELL (human) (UniProt P55199); experiment: co-IP; 293T cells transiently expressing epitope-tagged proteins, harvested 48 h after transfection; lysis buffer 20 mM Tris-Cl pH 8, 20% glycerol, 2 mM EDTA, 150 mM KCl, 0.1% NP-40; anti-FLAG M2 or anti-HA agarose, 12 h, 4°C; immunoblot. Also the first round of the tandem purifications from 293T. Some panels with doxorubicin, IR, ATM inhibitor, EAF1 or EAF2 knock-down or over-expression
T3 sequence: T1 sequence

[2] = target: T4, endogenous ELL (human (endogenous in 293T)) (UniProt P55199); experiment: co-IP; endogenous proteins from 293T whole cell lysate in BC150 buffer with 0.1% NP-40; target-specific antibody on protein-G magnetic beads, 12 h, 4°C; species-specific IgG as control; some panels after doxorubicin
T4 sequence: T1 sequence

[3] = target: T4, endogenous ELL (human (endogenous in 293T)); experiment: co-sedimentation; nuclear extract of 293T cells on a 4–20% glycerol gradient, 40K RPM, 8 h, 4°C; fractions immunoblotted
[4] = target: T5, FLAG-ELL (45–621) (human) (UniProt P55199); experiment: co-IP; 293T cells transiently expressing epitope-tagged proteins, harvested 48 h after transfection; lysis buffer 20 mM Tris-Cl pH 8, 20% glycerol, 2 mM EDTA, 150 mM KCl, 0.1% NP-40; anti-FLAG M2 or anti-HA agarose, 12 h, 4°C; immunoblot. Also the first round of the tandem purifications from 293T. Some panels with doxorubicin, IR, ATM inhibitor, EAF1 or EAF2 knock-down or over-expression
T5 sequence: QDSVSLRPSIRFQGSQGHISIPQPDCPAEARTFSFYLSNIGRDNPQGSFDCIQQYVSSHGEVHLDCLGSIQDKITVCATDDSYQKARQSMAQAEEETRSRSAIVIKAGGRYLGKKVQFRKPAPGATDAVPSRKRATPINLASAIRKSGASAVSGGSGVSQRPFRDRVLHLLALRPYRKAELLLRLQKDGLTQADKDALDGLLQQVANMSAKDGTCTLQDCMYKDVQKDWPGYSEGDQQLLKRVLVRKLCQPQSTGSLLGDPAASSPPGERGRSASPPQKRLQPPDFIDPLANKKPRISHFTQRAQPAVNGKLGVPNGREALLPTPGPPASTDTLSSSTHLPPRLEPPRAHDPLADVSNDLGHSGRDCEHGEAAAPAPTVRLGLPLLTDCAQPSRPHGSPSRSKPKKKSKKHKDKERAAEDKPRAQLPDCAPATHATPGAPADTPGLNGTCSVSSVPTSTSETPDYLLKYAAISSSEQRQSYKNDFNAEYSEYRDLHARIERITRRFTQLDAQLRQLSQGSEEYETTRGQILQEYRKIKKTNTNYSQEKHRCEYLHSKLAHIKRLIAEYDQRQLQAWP

FLAG-ELL (human) [5] = target: T3, FLAG-ELL (human); experiment: as above; remark: listed apart in the source
[6] = target: ELL•CDK9•SEC (293T) (human) (UniProt P55199+P50750); experiment: co-IP; tandem affinity purification from 293T cells: second round (His-CDK9, or the second tagged ELL) from the eluate of the first round; immunoblot
FLAG-EAF1 (Sf9) (human) = FLAG-EAF1 (Sf9) (human) (UniProt Q96JC9); experiment: co-IP; Sf9 cells co-infected with baculoviruses; second round of precipitation (His-CDK9, AF9 or FLAG-EAF1) from the eluate of the first round; bound material and supernatant immunoblotted
FLAG-ELL (human) [7] = target: T3, FLAG-ELL (human); experiment: co-IP; tandem affinity purification from 293T cells: second round (His-CDK9, or the second tagged ELL) from the eluate of the first round; immunoblot
[8] = target: T4, endogenous ELL (human (endogenous in 293T)); experiment: cross-linking; 293T whole cell lysate with 0.03–0.01% glutaraldehyde at room temperature, SDS-PAGE, immunoblot; one panel with over-expressed EAF1
FLAG-ELL TM (human) = target: T6, FLAG-ELL TM (human) (UniProt P55199); experiment: co-IP; 293T cells transiently expressing epitope-tagged proteins, harvested 48 h after transfection; lysis buffer 20 mM Tris-Cl pH 8, 20% glycerol, 2 mM EDTA, 150 mM KCl, 0.1% NP-40; anti-FLAG M2 or anti-HA agarose, 12 h, 4°C; immunoblot. Also the first round of the tandem purifications from 293T. Some panels with doxorubicin, IR, ATM inhibitor, EAF1 or EAF2 knock-down or over-expression
T6 sequence: T1 sequence with T551A, S561A, S589A

For AF9 (Sf9) (from UniProt P42568 1-568), the binding (FLAG-ELL (Sf9) (human)) was “binds”.

For “FLAG-EAF1 (Sf9) (from UniProt Q96JC9 1-268)”, the binding (His-ELL (Sf9) (human)) was “binds”.

“His-CDK9 (Sf9) (from UniProt P50750 1-372)” was tested, and the binding (FLAG-ELL (Sf9) (human)) was “binds”.

For His-CDK9 (from UniProt P50750 1-372), the binding (FLAG-ELL (human) [1]) was “binds”.

For ICE1 (from UniProt Q9Y2F5 1-2266), the binding (FLAG-ELL (human) [1]) was “binds”.

“ectopically expressed EAF1 (from UniProt Q96JC9 1-268)” was tested, and the binding (FLAG-ELL (human) [1]) was “binds”.

For “endogenous CDK9 (from UniProt P50750 1-372)”, the binding [2] was “binds”, the binding [3] was “binds” and the binding [4] was “binds”. The binding (FLAG-ELL (human) [1]) was “binds”.

For “over-expressed EAF2 (from UniProt Q96CJ1 1-260)”, the binding (FLAG-ELL (human) [1]) was “binds”.

B1: ENL (protein, UniProt Q03111 1-559)
chain: MDNQCTVQVRLELGHRAQLRKKPTTEGFTHDWMVFVRGPEQCDIQHFVEKVVFWLHDSFPKPRRVCKEPPYKVEESGYAGFIMPIEVHFKNKEEPRKVCFTYDLFLNLEGNPPVNHLRCEKLTFNNPTTEFRYKLLRAGGVMVMPEGADTVSRPSPDYPMLPTIPLSAFSDPKKTKPSHGSKDANKESSKTSKPHKVTKEHRERPRKDSESKSSSKELEREQAKSSKDTSRKLGEGRLPKEEKAPPPKAAFKEPKMALKETKLESTSPKGGPPPPPPPPPRASSKRPATADSPKPSAKKQKKSSSKGSRSAPGTSPRTSSSSSFSDKKPAKDKSSTRGEKVKAESEPREAKKALEVEESNSEDEASFKSESAQSSPSNSSSSSDSSSDSDFEPSQNHSQGPLRSMVEDLQSEESDEDDSSSGEEAAGKTNPGRDSRLSFSDSESDNSADSSLPSREPPPPQKPPPPNSKVSGRRSPESCSKPEKILKKGTYDKAYTDELVELHRRLMALRERNVLQQIVNLIEETGHFNVTNTTFDFDLFSLDETTVRKLQSCLEAVAT
In the case of B1, the binding (FLAG-ELL (human) [5]) is reported as “binds” and the binding [6] is reported as “binds”.

B2: His-ELL (Sf9) (protein, UniProt P55199 1-621)
chain: T1 sequence
For B2, the binding (FLAG-EAF1 (Sf9) (human)) was “binds”.

B3: HA-ELL (protein, UniProt P55199 1-621)
chain: T1 sequence
For B3, the binding (FLAG-ELL (human) [5]) was “binds” and the binding (FLAG-ELL (human) [7]) was “binds”.

B4: endogenous ELL (protein, UniProt P55199 1-621)
chain: T1 sequence
With B4 the binding [8] was “binds”.

B5: GFP-ELL (protein, UniProt P55199 1-621)
chain: T1 sequence
B5 was tested, and the binding (FLAG-ELL TM (human)) was “binds” and the binding (FLAG-ELL (human) [5]) was “binds”.
